Data on 24 sequences can be found in the supplement of paper PMC10338343.

± gives the standard deviation. The entries are a selection whose mix differs from that of the whole data set. Some results are limits rather than exact numbers.

The test deals with MIWI (PIWIL1) piRISC loaded with L1MC piRNA (30 nt). Description: pre-steady-state target cleavage rate (min^-1); MIWI and MILI are mouse PIWI proteins and EfPiwi is from a freshwater sponge; tags in brackets are library labels; higher = faster piRNA-guided slicing of the target. To be noted: guide: L1MC piRNA 5'p-UAACUAAAUACUAUGCAAGCUGUAGGUCCU; auxiliary factor: 500 nM mouse GTSF1. In a few lines:
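The method was Cleave-'n-Seq, in which uncleaved targets from a transcribed, DNA-blocked target RNA library were sequenced after exposure to active affinity-purified piRISC carrying one synthetic guide, with or without GTSF1 partner protein. Reactions contained 0.1 nM library, 1 nM piRISC and, where present, 500 nM GTSF1 in HEPES–potassium acetate buffer at 33 °C for 0–8 or 0–960 min. Reads were normalised to depth and to weakly complementary targets, three trials were pooled, and k3 was capped at 0.0001 min^-1. The pre-steady-state cleavage rate came from a burst-and-steady-state fit.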
Regarding UCCUGGAACAGCUUGCAUAGAAUUUACAAA, the “pre-steady-state target cleavage rate” value came out at 0.148 ± 0.034.
With UCCACCUACAGCUUGCAUACUAUUUACAAA, the “pre-steady-state target cleavage rate” value worked out at 0.176 ± 0.031.
For UGGACCUACAGCUACCAUAGUAUUUACAAA the value was 0.00304 ± 0.0028.
For the sequence UGGCACCUACAGCUUGCAUAGUAUUUAGUUA, the “pre-steady-state target cleavage rate” value is 2.2 ± 0.89.
For UCCUGGAACAGCUUGCAUAGUAAUUACAAA the value was 0.129 ± 0.038.
On to UCCUGCUACAGCAAGCAUAGUAUUUAGUAA, for which the “pre-steady-state target cleavage rate” value is 0.726 ± 0.084.
For the sequence UCCUGGAUGUGCUUGACAUAGUAUUUAGUUA, the “pre-steady-state target cleavage rate” value stood at 0.0551 ± 0.0082.
Take UCCUGGAACAGCUUGCAUAGUAAAUAGAAA: the “pre-steady-state target cleavage rate” value is 0.0609 ± 0.016.
For UCCUGGAACAGCUUGCAUUCUAUUUAGAAA the value was 0.00675 ± 0.0056.
Then UCCUCCUACAGCUUGCAUAGUAUUUAUUA, with 0.208 ± 0.028; and UCCUGGUUGUGCUUGCAUAGUAUUUUCAAA, with 0.00948 ± 0.0058; and UGGACCUACAGCUUGCAUAGUAAUUAGAAA, with 0.259 ± 0.051.
For “UCCUGGAUCAGCUUGCAUAGUAUUAUCAAA [g7:g22:cont:t1A]” the value was 0.226 ± 0.038; for AGGUGCUACAGCUUGCAUAGUAUUUUCAAA, 0.162 ± 0.034; for UCGACCUACAGCUUGCUAGUAUUUAGUUA, 0.219 ± 0.061.
As to UCCUCCUACAGCUUGCAUAGUAUAUAGAAA, the “pre-steady-state target cleavage rate” value was found to be 0.283 ± 0.057.
Then UCCUCCUACAGCUUGCAUUCUAUUUUCAAA, with 0.0121 ± 0.0059; and UCCUGCUACAGCUUGCAUAGUAAAUAGUAA, with 0.163 ± 0.038.
Regarding UCCUGCUACUGCUUGCAUAGUAUUUUCAAA, the “pre-steady-state target cleavage rate” value stood at 0.194 ± 0.042.
Then UCCUGGAACAGCUUCGUUAGUAUUUAGUUA, with 0.0272 ± 0.0057; and UCCUGGUACAGCUUGCAUACUAUUUACAAA, with 0.0733 ± 0.02.
Then UCCUGGAUGUCGAACGAAUAGUAUUUAGUUA, with < 0.0001; and AGGACCUACAGCUUGCAUAGAUAUUACAAA, with 0.188 ± 0.066.
With UCCUGGAUGUCCUUGCAUACUAUUUACUUA, the “pre-steady-state target cleavage rate” value came out at 0.00506 ± 0.0037.
